Inconclusive results, whose numbers are uncertain, are shown with a selection of clear calls. No potency is given beside an inconclusive call; the fits are too rough. Active and inactive are the calls of the source. Calls come from the whole dose curve; as a rule, active = well fitted inhibition curve with a large enough effect; inconclusive = small, poorly fitted or top-dose-only effect; inactive = no such curve, though single readings can be large or run the other way.
Experiment: Primary qHTS for inhibitors of La Crosse Virus (LACV) - induced cell death in SH-SY5Y cells (AID 1508616)
Conditions: SH-SY5Y LACV cytopathicity rescue, ATP luminescence, 6 d; series mostly up to 4.29 µM
From the text: Assay Provider: Karin Peterson Ph.D.
National Institute of Allergy and Infection Diseases, National Institute of Health
La Crosse Virus (LACV) is a California serogroup mosquito-borne arbovirus, family Peribunyaviridae, which is an endemic pathogen in North America and can induce a rare, life-threatening neurological disease in children. LACV was first isolated in the early 1960s, from a summer "rural encephalitis" case in La Crosse, Wisconsin, USA. Since then, LACV encephalitis cases have been found in more than twenty states, with most cases in the Mississippi and Ohio River basins. The life cycle of LACV is maintained between the vector, the eastern tree-hole mosquito Aedes triseriatus, and vertebrate hosts including eastern gray squirrels (Sciurus carolinensis) and chipmunks (Tamiasstriatus grinseus). […] Most LACV infections in humans are asymptomatic or induce mild clinical symptoms of fever, headache, lethargy and vomiting. However, in some cases LACV can cause severe neuroinvasive disease, including encephalitis, meningitis, and meningoencephalitis, requiring hospitalization. To date, there is neither a licensed vaccine nor a Food and Drug Administration (FDA) approved antiviral therapy available to prevent or treat LACV encephalitis. The primary treatment for viral encephalitis is palliative care due to the lack of therapeutics. In the current study, we conducted a screen of 4,096 FDA approved and bioactive small molecules against LACV, by screening for rescue of LACV-induced cell death in SH-SY5Y cells.
LACV-induced cytopathicity assay
SEQUENCE No. (1,2, 3, etc.); […] (e.g., Cells, Incubation, Reagent, etc.); VALUE and DESCRIPTION.
1. Reagent; 2 uL; Cell solution.
3. Compounds; 23nL; Compound library
4. Reagent; 12 uL; LACV virus
6. Reagent; 24 uL; ATPLite (PerkinElmer)
7. Time; 5 min; Room temperature
8. Detection; Luminescence; View
NOTES (numbers refer to sequence above)
1. Seed 6000 SH-SY5Y cells (ATCC CRL-2266) in 2 microL/well media (DMEM/F12 10% FBS, 1x L-Glutamine, 1x Pyruvate, 1x NEAA, 1x Pen/Strep) in 384-well assay plates (tissue culture treated, white, solid bottom).
2. Incubate at 37 degrees C with 5% CO2 for 24 hr.
3. Dispense 23 nL/well compounds in DMSO via pin transfer.
4. Dispense 12 microL/well of LACV (LACV/human/1978) in media at 0.01 MOI.
5. Incubate at for 6 days at 37C 5% CO2
6. Dispense 24 microL/well of ATPLite 1step Luminescence assay system (PerkinElmer).
7. Incubate for 5 min at room temperature.
8. Read luminescence signal (Viewlux plate reader, PerkinElmer). Data was normalized with DMSO control wells containing LACV as 0%, and DMSO control wells without virus as 100%.
Potency is the fitted concentration of half-maximal effect; tags give direction and shape of the fitted curve.

For `C[C@H](NC(CCc1ccccc1)C(=O)O)C(=O)N1CCC[C@H]1C(=O)O` (stereo not given in full), which Potency is on record?
Its Potency is “inactive”.

Which Potency does the source give for `O=C(O)Cc1sc(-c2ccccc2)nc1-c1ccc(Cl)cc1` here?
The Potency was “inactive”.

With `CN1CCN(c2nc3cc(C(F)(F)F)ccc3n3cccc23)CC1` as the compound, how does the Potency read?
Its Potency is inconclusive [inhibitor, partial curve, poor fit].

For `CN1C2CCC1CC(OC(c1ccccc1)c1ccccc1)C2` (stereo not given), which Potency is on record?
The Potency was inconclusive [inhibitor, single point].

Which Potency does the source give for `CN(C)C(=O)Oc1ccc[n+](C)c1` here?
The Potency was “inactive”.

Which Potency does the source give for `NCc1ccc(S(N)(=O)=O)cc1` here?
The Potency was “inactive”.

For `CC(=O)CC/C=C(\C)CC/C=C(\C)CC/C=C(\C)CCC=C(C)C`, which Potency is on record?
Its Potency is inconclusive [inhibitor, partial curve, poor fit].

For `O=c1[nH]cnc2nc[nH]c12`, which Potency is on record?
The Potency was “inactive”.

Which Potency does the source give for `CCCOc1ccc2c(c1)CC[C@@H]1[C@@H]2CC[C@]2(C)C(OC)CC[C@@H]12` (stereo not given in full) here?
The Potency was inconclusive [inhibitor, single point].

With `CCCCCCCC/C=C\CCCCCCCC(=O)NCCc1ccc(O)c(O)c1` as the compound, how does the Potency read?
Its Potency is active: 2.82 µM.

With `Nc1ccc2c3c(cccc13)C(=O)NC2=O` as the compound, how does the Potency read?
The Potency was inconclusive [inhibitor, single point].

Which Potency does the source give for `Nc1nc2ccc(Cl)cc2c2nc(-c3ccco3)nn12` here?
Its Potency is inconclusive [inhibitor, full curve, poor fit].

For `CN1C(CCl)Nc2cc(Cl)c(S(N)(=O)=O)cc2S1(=O)=O` (stereo not given), which Potency is on record?
Its Potency is inconclusive [inhibitor, partial curve].

Which Potency does the source give for `CCCCC#Cc1nc(NC)c2ncn([C@@H]3O[C@H](CO)[C@@H](O)[C@H]3O)c2n1` here?
The Potency was inconclusive [inhibitor, full curve, poor fit].

With `O=C(N[C@@H](Cc1ccccc1)C(=O)CCl)OCc1ccccc1` as the compound, how does the Potency read?
Its Potency is active: 1 µM.

For `O=C(O)Cn1cnnn1`, which Potency is on record?
The Potency was “inactive”.

Which Potency does the source give for `C[C@]12CC[C@@H]3c4ccc(O)cc4CC[C@H]3[C@@H]1C[C@@H](O)[C@@H]2O` here?
Its Potency is “inactive”.

With `CN(C)c1nc(N)c(C(=O)N=C(N)N)nc1Cl` as the compound, how does the Potency read?
The Potency was inconclusive [inhibitor, full curve].

For `COc1ccc2c(c1)CCC1C2CC[C@@]2(C)C1CC[C@@H]2NCCCCCCN1C(=O)CCC1=O` (stereo not given in full), which Potency is on record?
Its Potency is inconclusive [inhibitor, partial curve, poor fit].

Which Potency does the source give for `O=C(O)Cc1c[nH]c2ccc(O)cc12` here?
The Potency was inconclusive [inhibitor, partial curve].

Which Potency does the source give for `CO[C@@]1(NC(=O)CSCC#N)C(=O)N2C(C(=O)O)=C(CSc3nnnn3C)CS[C@@H]21` here?
Its Potency is inconclusive [inhibitor, single point].

Which Potency does the source give for `O=C(Nc1ccccc1)c1cc([N+](=O)[O-])ccc1Cl` here?
The Potency was inconclusive [inhibitor, single point].

For `O=C(O)C1=CC(=C(c2ccc(O)c(C(=O)O)c2)c2ccc(O)c(C(=O)O)c2)C=CC1=O`, which Potency is on record?
The Potency was inconclusive [inhibitor, single point].

For `CCN(CC)CCNC(=O)COc1ccc(Cl)cc1`, which Potency is on record?
The Potency was “inactive”.

Which Potency does the source give for `CN(C)C(=O)Oc1cccc([N+](C)(C)C)c1` here?
The Potency was “inactive”.

For `COc1cccc2c1[C@@H]1CN(CCCCn3c(=O)[nH]c4c(sc5ncc(-c6ccccc6)nc54)c3=O)C[C@@H]1CO2`, which Potency is on record?
The Potency was inconclusive [inhibitor, partial curve, poor fit].

With `O=C1O/C(=C/Br)CCC1c1cccc2ccccc12` (stereo not given) as the compound, how does the Potency read?
Its Potency is inconclusive [inhibitor, partial curve, poor fit].

Which Potency does the source give for `N#C/C(=C\c1ccc(O)c(O)c1)C(=O)NCc1ccccc1` here?
The Potency was inconclusive [inhibitor, partial curve, poor fit].

For `N#Cc1cc([N+](=O)[O-])c2sc(C(N)=O)[n+]([O-])c2c1`, which Potency is on record?
The Potency was inconclusive [inhibitor, partial curve, poor fit].

With `CN(C)S(=O)(=O)c1ccc2c(c1)/C(=C/c1cc3c([nH]1)CCCC3)C(=O)N2` as the compound, how does the Potency read?
The Potency was inconclusive [inhibitor, single point].

For `O=C(c1ccc(Cl)cc1)N1CCN(c2ccc([N+](=O)[O-])c3ncccc23)CC1`, which Potency is on record?
The Potency was inconclusive [inhibitor, partial curve, poor fit].

With `Cn1ncc(S(=O)(=O)Cc2ccccc2)c(Br)c1=O` as the compound, how does the Potency read?
Its Potency is inconclusive [inhibitor, partial curve, poor fit].

With `CO[C@]1(NC(=O)CSC(F)F)C(=O)N2C(C(=O)O)=C(CSc3nnnn3CCO)CO[C@H]21` as the compound, how does the Potency read?
Its Potency is inconclusive [inhibitor, single point].

For `CCCCCCCCCCCCCCCCCC(=O)NCC(COP(=O)([O-])OCC[N+](C)(C)C)OCC` (stereo not given), which Potency is on record?
The Potency was inconclusive [inhibitor, single point].

For `CN(C)CC[C@@H](c1ccc(Cl)cc1)c1ccccn1`, which Potency is on record?
Its Potency is “inactive”.

With `O=C(O)CCc1nc(-c2ccccc2)c(-c2ccccc2)o1` as the compound, how does the Potency read?
The Potency was “inactive”.

Which Potency does the source give for `CCOC(=O)OCC/C(SC(=O)OCC)=C(\C)N(C=O)Cc1cnc(C)nc1N` here?
The Potency was “inactive”.

With `COc1cc(NS(=O)(=O)c2ccc(N)cc2)nc(OC)n1` as the compound, how does the Potency read?
The Potency was “inactive”.

Which Potency does the source give for `CCCCCCCCCCCCCCCCCCOC[C@H](COP(=O)([O-])OCC[N+](C)(C)C)OC` here?
Its Potency is inconclusive [inhibitor, partial curve, poor fit].

Which Potency does the source give for `COc1ccc(NC(=O)c2ccc(-c3ccc(-c4noc(C)n4)cc3C)cc2)cc1N1CCN(C)CC1` here?
Its Potency is inconclusive [inhibitor, partial curve].
